# Results reported in PubChem BioAssay AID686978 (National Center for Advancing Translational Sciences (NCATS), 2013).
# The whole screen tested about 420,000 compounds, of which about 64,000 (15%) were called active. The inconclusive results got no clear call from the source; some entries with a clear call stand among them for comparison. Calls come from the whole dose curve; as a rule, active = well fitted inhibition curve with a large enough effect; inconclusive = small, poorly fitted or top-dose-only effect; inactive = flat fitted curve, though single readings scatter. No potency is given beside an inconclusive call; the fits are too rough.
# Test: qHTS for Inhibitors of human tyrosyl-DNA phosphodiesterase 1 (TDP1): qHTS in cells in absence of CPT; note: nearly all actives have a fitted effect of over 55% in size
# Conditions: DT40 Tdp1-/- hTDP1 cells, no CPT, ATP luminescence, 48 h; activity change, negative = growth inhibition: at 46.2 µM (top of the series) unless noted
# Summary of the method: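 Seeded 400 DT40-hTDP1 cells/well (vehicle DMSO, no 20 nM CPT); pinned compounds; ≥48 hr at 37 °C; CellTiter-Glo luminescence as viability measure.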
# % is set by controls: 0 for no effect and ±100 for the full control effect; potency is the fitted concentration of half-maximal effect; tags give direction and shape of the fitted curve.
SMILES,"activity change, negative = growth inhibition",Potency
COc1ccc2c(c1C)CCC(C)(C#N)C2=O (stereo not given),inactive: -18.3%,–
Cc1ccc(CN2CCN(Cc3cccc(-n4cccn4)c3)CC2CCO)cc1 (stereo not given),–,"inconclusive [inhibitor, single point]"
CC(=O)OCC(=O)[C@@]1(O)[C@H](OC(C)=O)C[C@H]2[C@@H]3CCC4=CC(=O)C=C[C@]4(C)[C@@]3(F)[C@@H](O)C[C@@]21C,inconclusive: -30.8% [inhibitor],–
O=C1CCC(=O)N1CCC(=O)N(C(=O)NC1CCCCC1)C1CCCCC1,inactive: -19.6%,–
O=[N+]([O-])c1ccc(C=NNc2ccccc2)cc1,–,"inconclusive [inhibitor, single point]"
COc1cccc(CNC(=O)C2CSC3(C)CCC(=O)N23)c1 (stereo not given),inactive: -7.49%,–
Cc1cc(OC(C)C(=O)Nc2cccnc2)ccc1Cl (stereo not given),–,"inconclusive [inhibitor, partial curve]"
COc1ccc(C(=O)n2nc(-c3cccnc3)nc2NCc2ccccc2)cc1OC,inconclusive: -31.1% [inhibitor],–
CCOc1ccccc1Nc1nc2ccccc2nc1NS(=O)(=O)c1ccc(Cl)cc1,–,active: 5.17 µM
CC(C)COC(=O)C(C#N)c1nc2ccccc2nc1N1CCN(Cc2ccccc2)CC1 (stereo not given),–,"inconclusive [inhibitor, single point]"
COc1cccc(-n2c(SCC(=O)NC(C)(C)C)nnc2-c2ccoc2C)c1,–,"inconclusive [inhibitor, single point]"
Cc1ccc(NC(=O)COc2ccccc2C#N)cc1S(=O)(=O)N1CCCCCC1,–,"inconclusive [inhibitor, single point]"
Cc1cccc(NC(=O)Cc2nc(-c3c[nH]c(C(=O)N4CCCC4)c3)cs2)c1,–,"inconclusive [inhibitor, single point]"
CCC(NS(=O)(=O)c1cccs1)c1ccc(C)cc1 (stereo not given),–,"inconclusive [inhibitor, single point]"
Cc1occc1C(=O)NN1C(=O)C2C3CCC(O3)C2C1=O (stereo not given),inactive: 6.13%,–
CCOC(=O)c1oc2cc(O)cc(C)c2c1C,–,"inconclusive [inhibitor, partial curve, poor fit]"
COc1cccc(-c2cc(=O)c3cc(NC(C)=O)ccc3[nH]2)c1,–,active: 16.4 µM
CC(C)n1ncc2c(C(=O)N3CCN(Cc4cccs4)CC3)cc(C3CC3)nc21,–,active: 25.9 µM
CC(Sc1nnnn1-c1ccccc1)C(=O)Nc1ccccc1-c1ccccc1 (stereo not given),–,"inconclusive [inhibitor, single point]"
Cc1cc(F)ccc1S(=O)(=O)Nc1nc2ccccc2nc1Cl,–,"inconclusive [inhibitor, single point]"
Cc1ccc(C(=O)Oc2ccccc2N2C(=O)C3CCC(C)CC3C2=O)cc1 (stereo not given),inactive: -0.163%,–
O=C(O)c1n[nH]nc1-c1ccccc1,inactive: 0.0814%,–
CCOc1cccc(C(=O)Nc2ccc3oc(-c4ccncc4)nc3c2)c1,–,"inconclusive [inhibitor, full curve]"

SMILES,"activity change, negative = growth inhibition",Potency
O=C(NCCCn1ccnc1)c1ccc(S(=O)(=O)N2CCCCCC2)cc1,–,"inconclusive [inhibitor, single point]"
COc1ccc(-c2cc(OC(=O)c3ccccc3Cl)c3c(C)oc(C)c3c(=O)c2)cc1OC,–,"inconclusive [inhibitor, single point]"
Nc1c(C(=O)C2CC2)sc2nc(-c3cccs3)cc(C(F)(F)F)c12,inconclusive: -32.1% [inhibitor],–
C#CCOCCOCCOCCNc1nc(N2CCN(C(=O)C([C@@H](C)O)n3cc([C@@H](N)CCCCN)nn3)CC2)nc(N2CCN(C(=O)[C@H](CCCN=C(N)N)n3cc(C(N)[C@@H](C)CC)nn3)CC2)n1 (stereo not given in full),inactive: 1.07%,–
Cn1c(=O)c2c(nc(NCCOc3ccc(F)cc3)n2C)n(C)c1=O,–,"inconclusive [inhibitor, single point]"
COc1ccccc1NC(=O)c1ccccc1S(=O)(=O)c1ccc([N+](=O)[O-])cc1,inactive: 2.55%,–
Cc1cc2cc(CNC(=S)NC3CCCCC3)ccc2n1C,–,"inconclusive [inhibitor, single point]"
N#CC1(Cc2ccc(Cl)cc2)c2ccccc2C=CN1C(=O)c1ccccc1 (stereo not given),–,active: 18.4 µM
CCc1nnc(SCc2cccc(Cl)c2)c2cc3sccc3n12,–,"inconclusive [inhibitor, single point]"
COc1ccc(CNC(=O)CN2C(=O)COc3ccc(S(=O)(=O)N4CCCCC4)cc32)cc1,–,inactive
Cc1ccc(-c2noc(-c3cccnc3NCc3ccco3)n2)cc1,–,"inconclusive [inhibitor, single point]"
C=CC[n+]1c(-c2ccc(Cl)cc2Cl)csc1Nc1ccc(NC(C)=O)cc1,–,active: 20.6 µM
CNC(=O)c1c(NC(=O)c2ccc3ncsc3c2)sc(C)c1C,–,"inconclusive [inhibitor, partial curve]"
CCOc1ccc(C2CC(c3cccc(Cl)c3)n3nc(N)nc3N2)cc1 (stereo not given),–,active: 16.4 µM
COc1ccc2c(CNC3CCCCCC3)c(C(=O)O)n(Cc3ccc(C)cc3)c2c1,–,"inconclusive [inhibitor, single point]"
COc1ccc(C(C)(C)C)cc1S(=O)(=O)n1ccnc1C,–,"inconclusive [inhibitor, partial curve]"
Cc1cc(F)ccc1NC(=O)Cn1nc(N2CCN(c3ccccc3)CC2)ccc1=O,inactive: -24.9%,–
N#Cc1ccc(-c2ccccc2)nc1SCC(=O)c1cccc(Cl)c1,inconclusive: -31.2% [inhibitor],–
Cc1cc(-c2ccncc2)n2ncc(-c3ccccc3)c2n1,–,"inconclusive [inhibitor, single point]"
O=C(NCc1cccnc1)/C(=C/c1ccc(-c2ccc(Cl)cc2)o1)S(=O)(=O)c1ccccc1,–,active: 7.31 µM
COc1cccc(CNCc2ccccn2)c1OC,–,active: 18.4 µM
Cc1c(-c2cccc(NC(=O)c3cccs3)c2)nc2ncccn12,–,"inconclusive [inhibitor, single point]"
